About 2,200 (0.71%) of roughly 310,000 compounds showed an effect of 50% or more. Effects have a minus sign here. This is one part of the list.
target: human ether-à-go-go-related gene (hERG) potassium channel (human, UniProt Q12809); assay: primary screen, population patch clamp on CHO cells stably expressing hERG
Sequence (Q12809 whole entry, looked up): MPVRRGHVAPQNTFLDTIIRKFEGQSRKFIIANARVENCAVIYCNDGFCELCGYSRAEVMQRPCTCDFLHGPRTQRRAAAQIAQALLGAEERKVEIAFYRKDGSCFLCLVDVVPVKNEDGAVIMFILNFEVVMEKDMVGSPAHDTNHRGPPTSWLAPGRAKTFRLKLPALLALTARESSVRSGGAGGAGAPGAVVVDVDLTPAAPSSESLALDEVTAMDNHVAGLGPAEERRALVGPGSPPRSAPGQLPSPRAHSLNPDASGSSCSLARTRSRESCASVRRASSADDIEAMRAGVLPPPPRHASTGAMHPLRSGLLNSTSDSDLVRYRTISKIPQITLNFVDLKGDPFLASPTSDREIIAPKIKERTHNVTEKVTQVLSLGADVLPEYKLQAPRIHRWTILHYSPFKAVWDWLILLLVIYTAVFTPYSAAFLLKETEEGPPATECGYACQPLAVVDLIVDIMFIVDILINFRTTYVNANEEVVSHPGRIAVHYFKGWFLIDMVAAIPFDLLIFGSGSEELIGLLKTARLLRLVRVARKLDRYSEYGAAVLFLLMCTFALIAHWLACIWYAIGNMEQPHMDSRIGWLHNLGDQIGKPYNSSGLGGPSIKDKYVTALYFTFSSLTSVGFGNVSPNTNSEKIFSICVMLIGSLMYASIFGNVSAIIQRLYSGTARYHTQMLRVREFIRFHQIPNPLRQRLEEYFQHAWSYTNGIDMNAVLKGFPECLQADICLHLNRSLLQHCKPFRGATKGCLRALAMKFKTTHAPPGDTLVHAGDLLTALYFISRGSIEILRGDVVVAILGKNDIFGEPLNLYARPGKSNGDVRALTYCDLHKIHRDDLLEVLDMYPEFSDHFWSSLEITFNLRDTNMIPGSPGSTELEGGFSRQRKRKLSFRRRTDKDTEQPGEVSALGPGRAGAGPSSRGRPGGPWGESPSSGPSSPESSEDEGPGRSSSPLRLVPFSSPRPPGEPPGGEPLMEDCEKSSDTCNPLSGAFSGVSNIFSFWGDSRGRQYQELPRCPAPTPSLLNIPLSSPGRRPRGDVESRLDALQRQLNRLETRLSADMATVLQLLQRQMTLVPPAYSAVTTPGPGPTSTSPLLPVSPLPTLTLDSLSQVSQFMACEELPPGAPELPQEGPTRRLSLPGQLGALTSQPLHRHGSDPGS

| SMILES | hERG current change (%, negative = inhibition) at 1uM |
| --- | --- |
| CS(=O)(=O)N1c2ccccc2[C@]2([C@@]34C[C@H]5C(=O)N[C@@H](Cc6ccccc6)C(=O)N5[C@@H]3N(S(C)(=O)=O)c3ccccc34)C[C@H]3C(=O)N[C@@H](Cc4ccccc4)C(=O)N3[C@H]12 | 14.6% |
| COc1cc(NC(=O)CSc2nnc3c(C)cc4cc(C)cc(C)c4n23)c(C(=O)O)cc1OC | 12.8% |
| CCN(C(=O)CN1CCN(c2ccc(O)cc2)CC1)c1c(N)n(Cc2ccccc2)c(=O)[nH]c1=O | -3.76% |
| CCOC(=O)C1CCN(C(c2cccc(OC)c2)c2sc3nc(C)nn3c2O)CC1 (centres unmarked) | -3.58% |
| O=C(CNC(=O)c1ccccc1)NCC(=O)OCc1ccccc1Cl | 20.3% |
| N#Cc1ccc(-c2ccc(OCC(O)Cn3nnc4ccccc43)cc2)cc1 (centres unmarked) | 11.4% |
| Cc1cc(C)n(-c2ncccc2[N+](=O)[O-])n1 | 14.4% |
| O=S(=O)(NCCC1=CCCCC1)c1cccc(Br)c1 | 5.79% |
| CC1=C(C(=O)OC(C)C)C(c2cccc(F)c2)N2C(=O)C(C)SC2=N1 (centres unmarked) | 6.43% |
| O=C(O)c1ccc(N=Cc2c(O)[nH]c(=O)[nH]c2=O)cc1 | 12.3% |
| Nc1nonc1-n1nnc(C(=O)N/N=C/c2ccoc2)c1-c1ccccc1 | 7.6% |
| CN(c1ccccc1C(=O)N1CCN(Cc2ccc3c(c2)OCO3)CC1)S(C)(=O)=O | 9.07% |
| COc1ccc(N2C(=O)CCC(C(=O)NCc3ccccn3)C2c2ccc(F)cc2)cc1 (centres unmarked) | 20.5% |
| Cc1ccc(OCC(=O)NCCCNC(=O)c2cccnc2)cc1 | 10.8% |
| O=C(Cc1c(F)cccc1Cl)Nc1ccccc1N1CCCCC1 | -12.8% |
| Cc1ccc(O)c(-c2cc(-c3ccccc3F)[nH]n2)c1 | 9.67% |
| O=c1[nH]c(NCCO)c(N=Cc2ccccc2)c(=O)[nH]1 | 17.5% |
| O=C(c1cc(Cl)c(=O)n(Cc2ccccc2)c1)N1CCOCC1 | 0.669% |
| COC(=O)c1c(NC(=S)Nc2ccc(C(=O)N3CCOCC3)cc2)sc2c1CCC2 | 7.77% |
| CC(C)(C)NC(=O)NC(=O)COC(=O)C1c2ccccc2Oc2ccccc21 | 2.9% |
| CCOC(=O)NC(=O)/C(C#N)=C(/C)N(C)C | 10.2% |
| O=C1CS/C(=C/C(=O)c2ccccc2)N1 | 6.1% |

| SMILES | hERG current change (%, negative = inhibition) at 1uM |
| --- | --- |
| CS(=O)(=O)N(Cc1ccc(Cl)cc1)c1ccc(C(=O)Nc2cccnc2)cc1 | 7.21% |
| CCOC(=O)Cc1csc(NC(=O)c2cc3c(s2)CCCC3)n1 | -18.1% |
| CCOc1ccc(NC(=O)CCC(=O)N/N=C(\C)c2cccs2)cc1 | 10.8% |
| CC(C)N1CCC(N2CCN(CC#Cc3ccccc3)CC2CCO)CC1 (centres unmarked) | 11.6% |
| Cc1nc(NC(=O)C2CC3CCCC(C2)C3=O)sc1C (centres unmarked) | 7.67% |
| Cc1ccc(S(=O)(=O)N2CCOCC2)cc1C(=O)NC1CCCCCC1 | 7.11% |
| CN(C)c1ccc(/C=N/n2ncc3ccccc32)cc1 | 9.74% |
| Cn1c(=O)c(=O)n(C)c2cc(N3CCCCC3)c(NS(=O)(=O)c3ccc(Br)cc3)cc21 | -10.2% |
| CCCN(CCC)CCCNC(=O)c1cc2cc3ccc(Cl)cc3nc2o1 | -6.08% |
| COc1ccc(CCNC(=O)[C@H](C)NC(=O)N2CCn3c2nc2ccccc23)cc1OC | 11.1% |
| O=C(CN1C(=O)CC(c2ccccc2)S(=O)(=O)c2ccccc21)N1CCCCC1 (centres unmarked) | 6.14% |
| CN(C)c1ccc(/C=C2\SC(N3CCCCC3)=NC2=O)cc1 | 4.58% |
| Br.N=C(N)SCCc1cccc(CCSC(=N)N)c1 | 11.2% |
| N#CC1=C(N)OC(c2ccccc2)=C(C#N)C1c1ccc2c(c1)OCO2 (centres unmarked) | 15.2% |
| CCN(Cc1ccccc1)C(=O)Cn1cnc2c1c(=O)n(C)c(=O)n2C | -12% |
| CC(NC(=O)COC(=O)Cc1ccccc1[N+](=O)[O-])c1ccccc1 (centres unmarked) | 5.9% |
| O=C(Cc1cccs1)Nc1ccc(C(=O)O)cc1 | -1.57% |
| O=C1CN(c2ccccc2Cl)C(=O)CN1c1ccccc1Cl | 6.48% |
| O=C(Nc1cccnc1)c1cc(-c2cccs2)on1 | 3.27% |
| O=C(CN1C(=O)C2C3CC(C(Br)C3Br)C2C1=O)OCC(=O)c1cccc([N+](=O)[O-])c1 (centres unmarked) | 9.95% |
| CCCOc1ccc(N2C(=O)CC(N(Cc3ccco3)C(=O)CC)C2=O)cc1 (centres unmarked) | 7.24% |
| O=C(NCCN1C(=O)C2C3C=CC(C3)C2C1=O)Nc1ccccc1O (centres unmarked) | 1.22% |

| SMILES | hERG current change (%, negative = inhibition) at 1uM |
| --- | --- |
| CN(C)c1cccc(C(=O)NCc2ccc3c(c2)OCO3)c1 | 7.91% |
| COc1ccc(/C=C2\SC(=S)N(NS(=O)(=O)c3ccccc3)C2=O)c(OC)c1 | 4.11% |
| CC1CCC2C(=O)N(c3cccc(OS(=O)(=O)c4ccccc4)c3)C(=O)C2C1 (centres unmarked) | -4.73% |
| O=C(CCN1C(=O)/C(=C/c2ccccc2Cl)SC1=S)NCCc1ccc(O)cc1 | 19% |
| Cc1ccccc1/C=N/Nc1ncnc2nc[nH]c12 | 11.1% |
| Cc1cc(C)c2nc(N(CCCN(C)C)C(=O)C3=COCCO3)sc2c1.Cl | -21.9% |
| O=C(Nc1ccc(F)cc1)C(c1ccccc1)N1CCN(S(=O)(=O)c2ccc3ccccc3c2)CC1 (centres unmarked) | 6.85% |
| Cc1nn(CCCC(=O)Nc2cc(Oc3ccc(F)cc3)cc([N+](=O)[O-])c2)c(C)c1[N+](=O)[O-] | -8.22% |
| O=C(OCc1nnc(-c2ccccc2)o1)c1cc(=O)c2ccccc2o1 | 17.9% |
| CCNC(=O)NC(=O)C(C)OC(=O)c1c(C)nn(Cc2ccccc2Cl)c1Cl (centres unmarked) | 11.4% |
| [O-][n+]1ccc(C(O)c2ccccc2)cc1 (centres unmarked) | 22.1% |
| COc1ccc(N2C3=C(C(=O)CC(C)(C)C3)C(c3ccccc3OC)C3=C2CC(C)(C)CC3=O)cc1 | 11.6% |
| CC(=O)c1ccccc1OCC(O)CNC1CCCC1.Cl (centres unmarked) | 4.81% |
| Cc1cc(S(=O)(=O)N2CCCC2)ccc1OCC(=O)NCc1ccco1 | 0.251% |
| Cc1ccc(S(=O)(=O)NC2=NCN(CCc3ccccc3)CN2)cc1 | 11.8% |
| O=C(CSc1nc2nn(-c3ccccc3)c(=O)c-2c2n1CCCCC2)Nc1ccc(F)cc1F | -2.84% |
| Cc1cc(N2CCCC(C(=O)Nc3ccc4c(c3)CCC4)C2)n2ncnc2n1 (centres unmarked) | -27.3% |
| CCn1nc(C)c(NC(=O)CSc2nnc(-c3ccco3)n2C)c1C | 6.3% |
| CC(C)Cn1c(=O)c2sccc2n2c(CCCC(=O)NC3CCN(Cc4ccccc4)CC3)nnc12 | 14.8% |
| COc1ccc(C)cc1NC(=O)NC1CCN(Cc2ccccc2)CC1 | -17.4% |
| Cn1c(=O)c2c(nc(Cc3ccc(N)cc3)n2C)n(C)c1=O | 4.42% |
| CCc1ccc2[nH]c3nc(N/N=C/c4ccc(O)cc4O)nnc3c2c1 | 11.5% |

| SMILES | hERG current change (%, negative = inhibition) at 1uM |
| --- | --- |
| COc1ccccc1C(=O)Nc1ccc2c(c1)n(C)c(=O)n2C | 8.65% |
| O=C(NC(=S)Nc1ccc2cn[nH]c2c1)c1ccccc1 | 4.86% |
| c1ccc2c(Nc3ccc4c(c3)OCCO4)c3c(nc2c1)CCCC3 | -83.5% |
| COc1cc(C#N)ccc1OCC(=O)NCCC1=CCCCC1 | 8.37% |
| C=CCN1C=CC(=CC=C(C#N)C#N)C=C1 | 10.5% |
| Cc1cc(C)cc(N(CC(=O)Nc2ccccc2C(=O)N2CCOCC2)S(C)(=O)=O)c1 | 14.6% |
| O=c1[nH]c(CSc2ncc(-c3ccc(F)cc3)n2Cc2ccco2)nc2ccccc12 | -5.51% |
| O=C(Nc1ccccc1)N1CCCCC1c1cccnc1 (centres unmarked) | 7.75% |
| CC1CCN(C(=S)c2ccc(O)cc2)CC1 | -2.39% |
| CCCCn1c(N)c(N(CC(C)C)C(=O)CC2OC(=O)c3ccccc32)c(=O)[nH]c1=O (centres unmarked) | 6.41% |
| Cc1ccc(CNCc2cc3c(C(C)(C)C)nn(-c4ccccc4)c3[nH]c2=O)cc1 | 13.3% |
| C/C(=N/NC(=O)OC(C)(C)C)c1ccco1 | 7.83% |
| O=C1c2ccsc2SCCN1Cc1ccccc1 | 16.8% |
| COc1cccc(C(=O)NCCOc2cc(C)cc(C)c2)c1 | 10.9% |
| NC(=O)C1(N2CCCCC2)CCN(C2CC(=O)N(Cc3ccc(N4CCCC4=O)cc3)C2=O)CC1 (centres unmarked) | 10.4% |
| CC(CC(=O)OCC(=O)NCc1ccc(Cl)cc1)c1ccccc1 (centres unmarked) | 8.68% |
| CCOC(=O)c1cnc(SC)nc1Oc1cccc(NC(=O)c2ccc(Cl)cc2)c1 | -0.0105% |
| O=C(CCNS(=O)(=O)c1ccccc1)OCc1nnc(-c2ccccc2)o1 | 14% |
| Cc1cc(C(=O)CN2C(=O)NC3(CCCC3)C2=O)c(C)n1-c1ccc2c(c1)OCO2 | -5% |
| O=C(NCCNC(=O)c1ccco1)c1ccco1 | 12% |

Reference: publication PMC4336329 (PLoS ONE, 2015)
